The source of these data is patent publication US20130045931A1 (priority 2010, published 2013).

For this assay, the system named is Klebsiella pneumoniae (ATCC 700603, extended β-lactamase resistance). Nature of the assay: Antibacterial test, clinically relevant strains (Sahly et al. 2003).

The term IC50 denotes the concentration needed to halve the response being measured. The low end stands for greater potency in that assay, the high end for weaker potency in that assay. mayamycin came in with an IC50 of 2.5 µM.
